From US20230203156A1, “ANTI-MDR1 ANTIBODIES AND USES THEREOF” (KENJOCKETY BIOTECHNOLOGY, INC., priority 2020, published 2023)

B1: KT14.5F9hu scFv-B1.28.hu13: anti-MDR1 and anti-CD47 bispecific antibody in scFv-Fab-Fc format (protein)
scFv: EVQLVESGGGLVQPGGSLRLSCAASGYTFTNYNMHWVRQAPGKGLEWMGTIYPGNDDTSYNQKFKDRVTISRDNSKNTLYLQMNSLRAEDTAVYYCARGGYRAMDYWGQGTLVTVSSGGGGSGGGGSGGGGSDIQMTQSPSSLSASVGDRVTITCRSSQSIVYSNGNTYLGWYQQKPGKSPKLLIYKVSNRFSGVPSRFSGSGSGTDFTLTISSLQPEDVATYYCFQGSHVPYTFGQGTKLEIKGGGGT[here human IgG1 Fc with changes without letters]
heavy: EVQLVESGGGLVKPGGSLRLSCAASGFTFGLYTMSWVRQAPGKGLEWVATISSGGSNTYYPDSVKGRFTISRDNAKNSLYLQMNSLRAEDTAVYYCARYYRYDAWFAYWGQGTLVTVSSASTKGPSVFPLAPSSKSTSGGTAALGCLVKDYFPEPVTVSWNSGALTSGVHTFPAVLQSSGLYSLSSVVTVPSSSLGTQTYICNVNHKPSNTKVDKRVEPKSCDKTHTCPPCPAPELLGGPSVFLFPPKPKDTLMISRTPEVTCVVVDVSHEDPEVKFNWYVDGVEVHNAKTKPREEQYNSTYRVVSVLTVLHQDWLNGKEYKCKVSNKALPAPIEKTISKAKGQPREPQVCTLPPSREEMTKNQVSLSCAVKGFYPSDIAVEWESNGQPENNYKTTPPVLDSDGSFFLVSKLTVDKSRWQQGNVFSCSVMHEALHNHYTQKSLSLSPGK
light: EVVLTQSPATLSLSPGERATLSCRSSQNIVHSTGNTYLDWYQQKPGQSPRLLIYKVSNRFSGVPARFSGSGSGTDFTLTISSLEPEDFAVYYCFQGSHIPRTFGGGTKLEIKRTVAAPSVFIFPPSDEQLKSGTASVVCLLNNFYPREAKVQWKVDNALQSGNSQESVTEQDSKDSTYSLSSTLTLSKADYEKHKVYACEVTHQGLSSPVTKSFNRGEC
B2: KT14.B6H12hu scFv-B1.28.hu13: anti-MDR1 and anti-CD47 bispecific antibody in scFv-Fab-Fc format (protein)
scFv: EVQLVQSGAEVKKPGASVKVSCKASGFTFSGYGMSWVRQAPGQRLEWVATITSGGTYTYYPDSVKGRFTITRDNSASTLYMELSSLRSEDTAVYYCARSLAGNAMDYWGQGTMVTVSSGGGGSGGGGSGGGGSDIVMTQSPLSLPVTPGEPASISCRASQTISDYLHWYLQKPGQSPQLLIKFASQSISGIPDRFSGSGSGSDFTLKISRVEAEDVGVYYCQNGHGFPRTFGGGTKLEIKGGGGT[here human IgG1 Fc with changes without letters]
heavy: B1 heavy
light: B1 light
B3: KT14.5F9hu scFv-B1.261.hu1: anti-MDR1 and anti-CD47 bispecific antibody in scFv-Fab-Fc format (protein)
scFv: EVQLVESGGGLVQPGGSLRLSCAASGYTFTNYNMHWVRQAPGKGLEWMGTIYPGNDDTSYNQKFKDRVTISRDNSKNTLYLQMNSLRAEDTAVYYCARGGYRAMDYWGQGTLVTVSSGGGGSGGGGSGGGGSDIQMTQSPSSLSASVGDRVTITCRSSQSIVYSNGNTYLGWYQQKPGKSPKLLIYKVSNRFSGVPSRFSGSGSGTDFTLTISSLQPEDVATYYCFQGSHVPYTFGQGTKLEIKGGGGT[here human IgG1 Fc with changes without letters]
heavy: EVQLQESGPGLVKPSETLSLTCTVSGFSLTSYGVHWVRQPPGKGLEWLVVIWSDGSTTYNSALKSRLTISKDNSKNQVSLKLSSVTAADTAVYYCARHGRWLLQRGGAMDYWGQGTMVTVSSASTKGPSVFPLAPSSKSTSGGTAALGCLVKDYFPEPVTVSWNSGALTSGVHTFPAVLQSSGLYSLSSVVTVPSSSLGTQTYICNVNHKPSNTKVDKRVEPKSCDKTHTCPPCPAPELLGGPSVFLFPPKPKDTLMISRTPEVTCVVVDVSHEDPEVKFNWYVDGVEVHNAKTKPREEQYNSTYRVVSVLTVLHQDWLNGKEYKCKVSNKALPAPIEKTISKAKGQPREPQVCTLPPSREEMTKNQVSLSCAVKGFYPSDIAVEWESNGQPENNYKTTPPVLDSDGSFFLVSKLTVDKSRWQQGNVFSCSVMHEALHNHYTQKSLSLSPGK
light: DVQMTQSPSSLSASVGDRVTITCRASQNVGSYIAWYQQKPGKSPKALIYSASYRSSGVPSRFSGSGAGTDFTLTISSLQPEDFATYFCQQYNSYPLTFGGGTKLEIKRTVAAPSVFIFPPSDEQLKSGTASVVCLLNNFYPREAKVQWKVDNALQSGNSQESVTEQDSKDSTYSLSSTLTLSKADYEKHKVYACEVTHQGLSSPVTKSFNRGEC
B4: KT14.B6H12hu scFv-B1.261.hu1: anti-MDR1 and anti-CD47 bispecific antibody in scFv-Fab-Fc format (protein)
scFv: EVQLVQSGAEVKKPGASVKVSCKASGFTFSGYGMSWVRQAPGQRLEWVATITSGGTYTYYPDSVKGRFTITRDNSASTLYMELSSLRSEDTAVYYCARSLAGNAMDYWGQGTMVTVSSGGGGSGGGGSGGGGSDIVMTQSPLSLPVTPGEPASISCRASQTISDYLHWYLQKPGQSPQLLIKFASQSISGIPDRFSGSGSGSDFTLKISRVEAEDVGVYYCQNGHGFPRTFGGGTKLEIKGGGGT[here human IgG1 Fc with changes without letters]
heavy: B3 heavy
light: B3 light

What follows are molecules tested against T1, human CD47 (Homo sapiens, UniProt Q08722) (assay: Binding of scFv-Fab-Fc bispecific antibodies to human CD47 expressed on C6 cells).
T1 construct: expressed in transfected cells
Source text: (§1) Cells expressing hABCB1 or hKT14 in stable cell lines were generated by transfecting rat fibroblast C6 cells. Because 5F9 and anti-ABCB1 antibodies have little affinity respectively to murine KT14 or ABCB1, the C6 cell line was used to measure affinity to the human targets expressed in it. KT14/Fc/KT14 Ab refers to single arm format of 5F9, i.e., one heavy chain and one light only.
(§2) Anti-MDR1 and anti-CD47 bispecific antibodies were generated in a scFv-Fab-Fc format as depicted in FIG. 20. The Fc region of the anti-CD47 arm of the bispecific antibody is depicted as having a “hole” created by amino acid substitution and the Fc region of the anti-MDR-1 arm includes a “knob” created by amino acid substitution. However, the knob and hole mutations may be reversed such that the anti-CD47 arm contains the knob and the anti-MDR1 arm contains the hole. Four bispecific antibodies were generated: • KT14.5F9hu scFv-B1.28.hu13 • KT14.B6H12hu scFv-B1.28.hu13 • KT14.5F9hu scFv-B1.261.hu1 • KT14.B6H12hu scFv-B1.261.hu1

| Molecule | binding to human CD47 expressed on the surface of C6 cells |
| --- | --- |
| B1 | bind |
| B2 | bind |
| B3 | bind |
| B4 | bind |

Each molecule was assayed against T2, human MDR1 (Homo sapiens, UniProt P08183) (assay: Binding of scFv-Fab-Fc bispecific antibodies to human MDR1 expressed on C6 cells).
T2 construct: expressed in transfected cells
Experimental: The MDR1 overexpressing HEK 293T cells or C6 cells were generated by transfection with human MDR1 cDNA in a mammalian expression vector, followed by a multistep selection of transfectants for resistance to hygromycin at 0.2 mg/ml or 0.5 mg/ml. A MDR1 high-expressing clone was isolated using a FACS Aria, after incubation with a detecting antibody, MRK16-PE.
as §1, §2

| Molecule | binding to human MDR1 expressed on the surface of C6 cells |
| --- | --- |
| B1 | bind |
| B2 | bind |
| B3 | bind |
| B4 | bind |
